According to the supplement of paper PMC4967469:
Lines with a small IC50 respond at low doses; a limit (>, <) means that the fit lies beyond the doses tested. AUC, from the same fit, is the share of area under the viability curve across the 256-fold dose range; it is 1 without any effect and falls as sensitivity rises. A top dose marked as inferred was derived from the fitted curves, not read from the paper. For some of these results: An entry number marks a drug with two screens in the source, which often give different values.

Assays:
Assay in all cases: Viability of human cancer cell lines after 72 h of drug (GDSC screen)
Shikonin = compound: CC(C)=CC[C@@H](O)C1=CC(=O)c2c(O)ccc(O)c2C1=O [Shikonin]; settings: top dose 16 µM; top dose inferred
Description: (§1)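 Human cancer cell lines in 384-well plates, medium with 10% serum, drug for 72 h over a 256-fold dose range (nine 2-fold or five 4-fold steps up to the top dose). Adherent lines were fixed and stained with the nucleic acid dye Syto60, suspension lines read with resazurin; signal relative to control wells, capped at 0 and 100%. One two-parameter sigmoid per drug and line, fitted in a mixed model over all curves with the slope shared within a line.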

CGP-082996 (CINK4) = compound: CCNc1cc(NC2CCC(O)CC2)nc(Nc2ccc3c(ccn3Cc3ccccc3)c2)n1 [CGP-082996 (CINK4)]; settings: top dose 5.12 µM; top dose inferred
Description: as §1

A-770041 = compound: COc1cc(-c2nn([C@H]3CC[C@H](N4CCN(C(C)=O)CC4)CC3)c3ncnc(N)c23)ccc1NC(=O)c1cc2ccccc2n1C [A-770041]; settings: top dose 5.12 µM; top dose inferred
Description: as §1

XMD8-85 = compound: COc1cc(N2CCN(C)CC2)ccc1Nc1ncc2c(n1)N(C)c1ccccc1C(=O)N2C [XMD8-85]; settings: top dose 8 µM; top dose inferred
Description: as §1

BMS-536924 = compound: Cc1cc(N2CCOCC2)cc2[nH]c(-c3c(NC[C@@H](O)c4cccc(Cl)c4)cc[nH]c3=O)nc12 [BMS-536924]
Description: as §1

BIRB 0796 = compound: Cc1ccc(-n2nc(C(C)(C)C)cc2NC(=O)Nc2ccc(OCCN3CCOCC3)c3ccccc23)cc1 [BIRB 0796]; settings: top dose 10 µM; top dose inferred
Description: as §1

SB-525334 = compound: Cc1cccc(-c2[nH]c(C(C)(C)C)nc2-c2ccc3nccnc3c2)n1 [SB-525334]; settings: top dose 20 µM; top dose inferred
Description: as §1

VX-702 = compound: NC(=O)c1ccc(N(C(N)=O)c2c(F)cccc2F)nc1-c1ccc(F)cc1F [VX-702]; settings: top dose 2 µM; top dose inferred
Description: as §1

Olaparib = compound: O=C(c1cc(Cc2n[nH]c(=O)c3ccccc23)ccc1F)N1CCN(C(=O)C2CC2)CC1 [Olaparib]
Description: as §1

Wee1 inhibitor 681640 = compound: O=C1NC(=O)c2c1c(-c1ccccc1Cl)cc1[nH]c3ccc(O)cc3c21 [Wee1 inhibitor 681640]; settings: top dose 2 µM; top dose inferred
Description: as §1

[1] = top dose 4 µM, screen: GDSC drug entry 1091, top dose inferred
[2] = top dose 5.12 µM, screen: GDSC drug entry 62
[3] = top dose 5 µM, screen: GDSC drug entry 1017, top dose inferred
[4] = top dose 10 µM, screen: GDSC drug entry 1495

| Cell Line | AUC (Shikonin) | IC50 (Shikonin) [µM] | AUC (CGP-082996 (CINK4)) | IC50 (CGP-082996 (CINK4)) [µM] | AUC (A-770041) | IC50 (A-770041) [µM] | AUC (XMD8-85) | IC50 (XMD8-85) [µM] | AUC (BMS-536924; [1]) | IC50 (BMS-536924; [1]) [µM] | AUC (BMS-536924; [2]) | IC50 (BMS-536924; [2]) [µM] | AUC (BIRB 0796) | IC50 (BIRB 0796) [µM] | AUC (SB-525334) | IC50 (SB-525334) [µM] | AUC (VX-702) | IC50 (VX-702) [µM] | AUC (Olaparib; [3]) | IC50 (Olaparib; [3]) [µM] | AUC (Olaparib; [4]) | IC50 (Olaparib; [4]) [µM] | AUC (Wee1 inhibitor 681640) | IC50 (Wee1 inhibitor 681640) [µM] |
| --- | --- | --- | --- | --- | --- | --- | --- | --- | --- | --- | --- | --- | --- | --- | --- | --- | --- | --- | --- | --- | --- | --- | --- | --- |
| A3-KAW (B-cell lymphoma, suspension) | 0.611 | 1.89 | 0.768 | 1.55 | 0.989 | > 5.12 | 0.741 | 2.04 | 0.892 | 3.02 | 0.804 | 1.97 | 0.993 | > 10 | 0.983 | > 20 | 0.992 | > 2 | 0.985 | > 5 | 0.934 | > 10 | 0.993 | > 2 |
| A4-Fuk (B-cell lymphoma, suspension) | 0.283 | 0.235 | 0.917 | > 5.12 | 0.982 | > 5.12 | 0.817 | 4.73 | 0.879 | > 4 | 0.298 | 0.0839 | 0.929 | > 10 | 0.98 | > 20 | 0.825 | 1.27 | 0.985 | > 5 | 0.981 | > 10 | 0.924 | > 2 |
| ARH-77 (myeloma, suspension) | 0.474 | 0.852 | 0.924 | > 5.12 | 0.848 | 3.58 | 0.9 | > 8 | 0.935 | > 4 | 0.824 | 2.89 | 0.988 | > 10 | 0.95 | > 20 | 0.974 | > 2 | 0.969 | > 5 | 0.972 | > 10 | 0.985 | > 2 |
| BB30-HNC (head and neck, adherent) | 0.224 | 0.16 | 0.868 | 4.5 | 0.65 | 0.827 | 0.808 | 4.05 |  |  | 0.693 | 1.1 | 0.984 | > 10 | 0.984 | > 20 | 0.986 | > 2 | 0.926 | > 5 | 0.874 | 9.4 | 0.882 | > 2 |
| BB49-HNC (head and neck, adherent) | 0.87 | > 16 | 0.879 | > 5.12 | 0.905 | > 5.12 | 0.844 | > 8 | 0.686 | 1.04 | 0.906 | > 5.12 | 0.975 | > 10 | 0.978 | > 20 | 0.978 | > 2 | 0.977 | > 5 | 0.852 | > 10 | 0.945 | > 2 |
| BC-1 (B-cell lymphoma, suspension) | 0.63 | 2.15 | 0.951 | > 5.12 | 0.977 | > 5.12 | 0.92 | > 8 | 0.945 | > 4 | 0.95 | > 5.12 | 0.989 | > 10 | 0.968 | > 20 | 0.99 | > 2 | 0.98 | > 5 | 0.981 | > 10 | 0.988 | > 2 |
| BE2-M17 (neuroblastoma, adherent) | 0.618 | 2.14 | 0.955 | > 5.12 | 0.987 | > 5.12 | 0.946 | > 8 | 0.686 | 0.842 | 0.852 | 4.14 | 0.987 | > 10 | 0.943 | > 20 | 0.985 | > 2 | 0.987 | > 5 | 0.984 | > 10 | 0.931 | > 2 |
| BV-173 (chronic myeloid leukaemia, suspension) | 0.377 | 0.48 | 0.869 | 3.78 | 0.533 | 0.389 | 0.887 | 7.09 | 0.916 | > 4 | 0.891 | 4.74 | 0.966 | > 10 | 0.986 | > 20 | 0.921 | > 2 | 0.747 | 1.44 | 0.798 | 4.13 | 0.856 | 1.32 |
| CA46 (Burkitt lymphoma, suspension) | 0.254 | 0.185 | 0.915 | > 5.12 | 0.916 | > 5.12 | 0.917 | > 8 | 0.892 | > 4 | 0.909 | > 5.12 | 0.985 | > 10 | 0.88 | > 20 | 0.978 | > 2 | 0.983 | > 5 | 0.975 | > 10 | 0.985 | > 2 |
| CCRF-CEM (lymphoblastic leukaemia, suspension) | 0.45 | 0.748 | 0.978 | > 5.12 | 0.966 | > 5.12 | 0.931 | > 8 | 0.972 | > 4 | 0.981 | > 5.12 | 0.984 | > 10 | 0.987 | > 20 | 0.973 | > 2 | 0.923 | > 5 | 0.954 | > 10 | 0.932 | > 2 |
| CESS (acute myeloid leukaemia, suspension) | 0.489 | 0.936 | 0.98 | > 5.12 | 0.954 | > 5.12 | 0.877 | 6.11 | 0.948 | > 4 | 0.955 | > 5.12 | 0.989 | > 10 | 0.949 | > 20 | 0.991 | > 2 | 0.986 | > 5 | 0.943 | > 10 | 0.989 | > 2 |
